Patent publication US12583836B2 (Anaxis Pharma Pty Ltd, priority 2020, dated 2026)
pIC50, pKd: −log10 of the molar value.

Legend:
RIP1 = target: T1, RIP1 (Homo sapiens, UniProt Q13546); assay: KINOMEscan binding assay, RIP1; details: equilibrium dissociation constant, class symbols
T1 construct: purchased DiscoverX (KINOMEscan service); host or cells: E. coli BL21-derived (T7 phage) or HEK293
T1 sequence (Q13546 1-671): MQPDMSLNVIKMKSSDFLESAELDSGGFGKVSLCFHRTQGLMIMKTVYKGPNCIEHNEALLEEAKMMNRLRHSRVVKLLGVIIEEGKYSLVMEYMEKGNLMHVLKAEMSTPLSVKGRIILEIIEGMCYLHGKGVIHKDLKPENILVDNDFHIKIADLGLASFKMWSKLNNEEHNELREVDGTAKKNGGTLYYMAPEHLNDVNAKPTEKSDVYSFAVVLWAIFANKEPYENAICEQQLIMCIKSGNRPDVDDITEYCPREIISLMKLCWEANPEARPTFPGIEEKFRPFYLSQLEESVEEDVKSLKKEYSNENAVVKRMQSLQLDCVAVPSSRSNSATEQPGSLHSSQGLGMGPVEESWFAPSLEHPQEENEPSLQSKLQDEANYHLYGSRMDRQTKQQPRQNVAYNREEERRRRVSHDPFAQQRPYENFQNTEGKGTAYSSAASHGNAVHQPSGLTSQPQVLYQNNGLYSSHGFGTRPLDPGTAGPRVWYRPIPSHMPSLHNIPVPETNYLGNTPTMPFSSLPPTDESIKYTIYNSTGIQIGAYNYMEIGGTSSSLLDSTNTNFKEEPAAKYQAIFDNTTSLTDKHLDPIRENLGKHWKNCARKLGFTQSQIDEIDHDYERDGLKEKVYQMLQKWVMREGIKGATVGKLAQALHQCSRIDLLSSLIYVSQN

RIP3 = target: T2, RIP3 (Homo sapiens, UniProt Q9Y572); assay: KINOMEscan binding assay, RIP3; details: equilibrium dissociation constant, class symbols
T2 construct: purchased DiscoverX (KINOMEscan service); host or cells: E. coli BL21-derived (T7 phage) or HEK293
T2 sequence (Q9Y572 whole entry): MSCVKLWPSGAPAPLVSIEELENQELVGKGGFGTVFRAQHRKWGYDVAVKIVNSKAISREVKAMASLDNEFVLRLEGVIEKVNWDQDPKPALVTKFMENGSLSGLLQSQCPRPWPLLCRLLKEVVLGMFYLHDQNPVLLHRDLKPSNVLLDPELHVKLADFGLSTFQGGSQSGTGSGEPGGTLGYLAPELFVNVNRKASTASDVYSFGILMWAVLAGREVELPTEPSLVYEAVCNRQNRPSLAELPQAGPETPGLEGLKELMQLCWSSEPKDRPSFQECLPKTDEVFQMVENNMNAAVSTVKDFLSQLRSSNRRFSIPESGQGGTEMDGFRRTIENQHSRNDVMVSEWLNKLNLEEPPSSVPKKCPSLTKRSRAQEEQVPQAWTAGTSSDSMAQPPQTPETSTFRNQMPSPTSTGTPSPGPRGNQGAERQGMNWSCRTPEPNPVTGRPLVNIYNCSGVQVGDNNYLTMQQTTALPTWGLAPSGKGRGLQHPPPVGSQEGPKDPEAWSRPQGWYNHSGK
Source text: The Hill Slope was set to −1.

[1] = tested on: U937 human histiocytic leukemia cell line; assay: Inhibition of TSQ induced necroptosis, 384 well plate format (CellTitre-Glo); details: Homo sapiens, U-937; U937 cells, TSQ cocktail (TNF, Smac mimetic, Q-VD-OPh), CelltiterGlo; read-out: Inhibition of TSQ-induced necroptosis (IC50 cell-based assay)
Description: […] ASSAY: Screening compounds for inhibition of TSQ induced necroptosis, 384 well plate format.
Cell Line ID: U937 human histiocytic leukemia cell line.
Cell Concentration (cells/well): Final cell density is 20000 cells per well.
Cell growth medium: HT-RPMI medium+7.4% Fetal Bovine Serum (FBS). Cells are cultured in Corning 150 cm^2 tissue culture flasks with vented caps at 37° C./5% CO2.
Incubation: Plates were incubated at 37° C./5% CO2 in a humidified incubator for 48 hours following addition of compounds and death stimuli (TSQ cocktail).
Compound concentration: 36 μM starting concentration, 1:3 dilution, 10 point
DMSO final concentration (% v/v): 0.3%.
Compounds in TSQ cocktail (T: TNF; S: Smac mimetic; Q: Q-VD-OPh) and their final concentrations:
hTNF-Fc (100 ng/ml)—produced by standard procedures as shown in Bossen et al., J Biol Chem, 2006, 281(20), 13964-13971.
Compound A (500 nM)—Smac mimetic, Tetralogic and SYNthesis med chem
Q-VD-OPh (10 μM)—MP Biomedicals
The cellular assay was carried out according to the following steps: • 1. Each well was prepared by sequential addition of: • a. DMSO (control; columns 1-2 and 23-24) or compound in DMSO—addition was performed using acoustic transfer of nl volumes of stock compound to give final test concentrations of 36, 12, 4, 1.3, 0.44, 0.148, 0.049, 0.016, 0.005 and 0.002 μM. All wells were backfilled with DMSO to a final total volume in the well of 100 nl. • b. Following compound/DMSO addition in step (a), 40 μL of cell suspension (5×10^5 cells/mL) was added to provide a final cell concentration of 20,000 cells per well, and • c. Following cell addition in step (b), 10 μL of 5×TSQ cocktail (except to positive controls; columns 1 and 23) was added to each well. • 2. After 48 hours, plate was removed from the 37° C. incubator and equilibrated to room temperature for 45 minutes. • 3. 15 μL of room temperature CellTitre-Glo2™ (Promega™) was added to each well. • 4. […] Read luminescence readout on a plate reader. […]
Percent viability was calculated for each compound according to equation (2):
[formula] • wherein • RawData is the readout of any cell containing a compound of the invention • TA is the total activity provided by the luminescence readout from DMSO only wells (columns 2 and 24)=100% viability • NSA is the non-specific activity provided by DMSO+TSQ wells (columns 1 and 23)=0% viability […]
Assay involving the TSQ cocktail (T: TNF; S: Smac mimetic; Q: Q-VD-OPh): TSQ treatment ensures that cells specifically undergo necroptotic cell death. […] The compounds' activity (solution in DMSO) tested in this TSQ-induced assay was evaluated by determining the number of viable cells in culture by measuring the amount of ATP present as measured by CelltiterGlo.

U937 cells = assay: Counter screen: cell viability without the TSQ cocktail (CelltiterGlo); parameters: species or system human; details: Homo sapiens, U-937, cell viability by CelltiterGlo, read-out: Off-target effect (IC50 cell-based assay)
Description: Counter screen: In parallel, all compounds were tested for their ability to affect cell viability. The same U937 cells were treated with compound in DMSO without the TSQ cocktail. This counter screen enabled evaluation of off-target effects. In this case, cell viability was measured by CelltiterGlo.

SMILES	pKd (RIP1)	pKd (RIP3)	pIC50 [1]	pIC50 (U937 cells)
C[C@H](Oc1cc(-c2n[nH]c(Nc3cc4n(n3)CCOC4)c2C(N)=O)ccc1NS(=O)(=O)C(F)F)c1ccc(F)cc1 [Compound 308, (S)-3-(4-((difluoromethyl)sulfonamido)-3-(1-(4-fluorophenyl)ethoxy)phenyl)-5-((6,7-dihydro-4H-pyrazolo[5,1-c][1,4]oxazin-2-yl)amino)-1H-pyrazole-4-carboxamide]	< 4.52	< 4.52	> 8.00	< 4.52
CCc1cc(Nc2[nH]nc(-c3ccc(NS(=O)(=O)C(F)F)c(O[C@@H](C)c4ccc(F)cc4)c3)c2C(N)=O)no1 [Compound 274, (S)-3-(4-((difluoromethyl)sulfonamido)-3-(1-(4-fluorophenyl)ethoxy)phenyl)-5-((5-ethylisoxazol-3-yl)amino)-1H-pyrazole-4-carboxamide]	–	–	6.00 to 8.00	< 4.52
CCS(=O)(=O)Nc1ccc(-c2n[nH]c(Nc3cnccn3)c2C(N)=O)cc1OCc1ccc(Cl)cn1 [Compound 242, 3-{3-[(5-chloropyridin-2-yl)methoxy]-4-ethanesulfonamidophenyl}-5-[(pyrazin-2-yl)amino]-1H-pyrazole-4-carboxamide]	–	–	6.00 to 8.00	< 4.52
NC(=O)c1c(-c2ccc(NS(=O)(=O)CC(F)(F)F)c(OCc3ccc(F)cc3)c2)n[nH]c1Nc1ccc(C(F)(F)F)nc1 [Compound 176, 3-(3-((4-fluorobenzyl)oxy)-4-((2,2,2-trifluoroethyl)sulfonamido)phenyl)-5-((6-(trifluoromethyl)pyridine-3-yl)amino)-1H-pyrazole-4-carboxamide]	–	–	6.00 to 8.00	4.52 to 6.00
